# Results from the supplement of paper PMC8728848.
# This is one part of the list.
# B1: HPL (Tachypleus tridentatus) (protein)
# chain: MEDDCTCVTDRSLEGKLMKHPSTPAVYQILDGCRRLVPNPPTYNNIYKNWECIQSNILEKLLCKCDSLSNGAELIKGSGDTVYLLSNGVKRPIADPETFNGFCFDWNKIKTYSDIVINSLSTGPIIIIKHHHHHH
# Columns and labels:
# Assay in all cases: glycan array binding signal (z-score within array); higher = stronger binding
# Settings in all cases: glycan notation: IUPAC condensed, linker removed
# [1] = biological target: Man(a1-2)Man(a1-3)[Man(a1-2)Man(a1-6)]Man(a1-6)[Man(a1-2)Man(a1-2)Man(a1-3)]Man
# Method in brief: (§1)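 From the Consortium for Functional Glycomics database, 3228 arrays were curated, keeping only those whose protein sequence was available. Binding is given as a within-array Z-score averaged across arrays sharing a protein sequence and across linkers. Negative Z-scores can be read as non-binding.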
# [2] = biological target: Man(a1-2)Man(a1-3)[Man(a1-2)Man(a1-6)]Man(a1-6)[Man(a1-2)Man(a1-2)Man(a1-3)]Man(b1-4)GlcNAc(b1-4)GlcNAc
# Method in brief: as §1
# [3] = biological target: Man(a1-2)Man(a1-3)[Man(a1-6)]Man(a1-6)[Man(a1-2)Man(a1-3)]Man(b1-4)GlcNAc(b1-4)GlcNAc
# Method in brief: as §1
# [4] = biological target: Man(a1-2)Man(a1-6)[Man(a1-3)]Man(a1-6)[Man(a1-2)Man(a1-2)Man(a1-3)]Man
# Method in brief: as §1
# [5] = biological target: Man(a1-2)Man(a1-6)[Man(a1-3)]Man(a1-6)[Man(a1-2)Man(a1-2)Man(a1-3)]Man(b1-4)GlcNAc(b1-4)GlcNAc
# Method in brief: as §1
# Man(a1-3)[Man(a1-6)]Man = biological target: Man(a1-3)[Man(a1-6)]Man
# Method in brief: as §1
# [6] = biological target: Man(a1-3)[Man(a1-6)]Man(a1-6)[Man(a1-2)Man(a1-3)]Man(b1-4)GlcNAc(b1-4)GlcNAc
# Method in brief: as §1
# [7] = biological target: Man(a1-3)[Man(a1-6)]Man(a1-6)[Man(a1-3)]Man
# Method in brief: as §1
# [8] = biological target: Man(a1-3)[Man(a1-6)]Man(a1-6)[Man(a1-3)]Man(b1-4)GlcNAc(b1-4)GlcNAc
# Method in brief: as §1
# [9] = biological target: Man(a1-3)[Man(a1-6)]Man(b1-4)GlcNAc(b1-4)GlcNAc
# Method in brief: as §1
# [10] = biological target: Man(a1-3)[Man(a1-6)]Man(b1-4)GlcNAc(b1-4)[Fuc(a1-6)]GlcNAc
# Method in brief: as §1
# Man(a1-6)Man = biological target: Man(a1-6)Man
# Method in brief: as §1
# Man(b1-4)GlcNAc = biological target: Man(b1-4)GlcNAc
# Method in brief: as §1
# MurNAc(b1-4)GlcNAc = biological target: MurNAc(b1-4)GlcNAc
# Method in brief: as §1
# Neu5Ac(a2-3)Gal = biological target: Neu5Ac(a2-3)Gal
# Method in brief: as §1
# [11] = biological target: Neu5Ac(a2-3)Gal(b1-3)GalNAc
# Method in brief: as §1
# [12] = biological target: Neu5Ac(a2-3)Gal(b1-3)GalNAc(b1-3)Gal(a1-4)Gal(b1-4)Glc
# Method in brief: as §1
# [13] = biological target: Neu5Ac(a2-3)Gal(b1-3)GalNAc(b1-4)Gal(b1-4)Glc
# Method in brief: as §1
# [14] = biological target: Neu5Ac(a2-3)Gal(b1-3)GalNAc(b1-4)[Neu5Ac(a2-3)]Gal(b1-4)Glc
# Method in brief: as §1
# [15] = biological target: Neu5Ac(a2-3)Gal(b1-3)GalNAc(b1-4)[Neu5Ac(a2-8)Neu5Ac(a2-3)]Gal(b1-4)Glc
# Method in brief: as §1
# [16] = biological target: Neu5Ac(a2-3)Gal(b1-3)GalNAc6S
# Method in brief: as §1
# [17] = biological target: Neu5Ac(a2-3)Gal(b1-3)GlcNAc
# Method in brief: as §1
# [18] = biological target: Neu5Ac(a2-3)Gal(b1-3)GlcNAc(b1-2)Man
# Method in brief: as §1
# [19] = biological target: Neu5Ac(a2-3)Gal(b1-3)GlcNAc(b1-2)Man(a1-3)[GlcNAc(b1-4)][Neu5Ac(a2-3)Gal(b1-3)GlcNAc(b1-2)Man(a1-6)]Man(b1-4)GlcNAc(b1-4)GlcNAc
# Method in brief: as §1
# [20] = biological target: Neu5Ac(a2-3)Gal(b1-3)GlcNAc(b1-2)Man(a1-3)[Neu5Ac(a2-3)Gal(b1-3)GlcNAc(b1-2)Man(a1-6)]Man(b1-4)GlcNAc(b1-4)GlcNAc
# Method in brief: as §1
# [21] = biological target: Neu5Ac(a2-3)Gal(b1-3)GlcNAc(b1-2)[Neu5Ac(a2-3)Gal(b1-3)GlcNAc(b1-4)]Man(a1-6)[Neu5Ac(a2-3)Gal(b1-3)GlcNAc(b1-2)Man(a1-3)]Man(b1-4)GlcNAc(b1-4)GlcNAc
# Method in brief: as §1
# [22] = biological target: Neu5Ac(a2-3)Gal(b1-3)GlcNAc(b1-3)Gal(b1-3)GlcNAc
# Method in brief: as §1
# [23] = biological target: Neu5Ac(a2-3)Gal(b1-3)GlcNAc(b1-3)Gal(b1-4)GlcNAc
# Method in brief: as §1
# [24] = biological target: Neu5Ac(a2-3)Gal(b1-3)GlcNAc(b1-3)GalNAc
# Method in brief: as §1
# [25] = biological target: Neu5Ac(a2-3)Gal(b1-3)GlcNAc(b1-6)GalNAc
# Method in brief: as §1
# [26] = biological target: Neu5Ac(a2-3)Gal(b1-3)GlcNAc6S
# Method in brief: as §1
# [27] = biological target: Neu5Ac(a2-3)Gal(b1-3)[Fuc(a1-4)]GlcNAc
# Method in brief: as §1
# [28] = biological target: Neu5Ac(a2-3)Gal(b1-3)[Fuc(a1-4)]GlcNAc(b1-3)Gal(b1-3)[Fuc(a1-4)]GlcNAc
# Method in brief: as §1
# [29] = biological target: Neu5Ac(a2-3)Gal(b1-3)[Fuc(a1-4)]GlcNAc(b1-3)Gal(b1-4)[Fuc(a1-3)]GlcNAc
# Method in brief: as §1
# [30] = biological target: Neu5Ac(a2-3)Gal(b1-3)[GlcNAc(b1-6)]GalNAc
# Method in brief: as §1
# [31] = biological target: Neu5Ac(a2-3)Gal(b1-3)[Neu5Ac(a2-6)]GalNAc
# Method in brief: as §1
# [32] = biological target: Neu5Ac(a2-3)Gal(b1-3)[Neu5Ac(a2-6)]GlcNAc(b1-3)[Fuc(a1-3)[Gal(b1-4)]GlcNAc(b1-6)]Gal(b1-4)Glc
# Method in brief: as §1
# [33] = biological target: Neu5Ac(a2-3)Gal(b1-3)]Neu5Ac(a2-3)Gal(b1-4)]GlcNAc
# Method in brief: as §1
# Neu5Ac(a2-3)Gal(b1-4)Glc = biological target: Neu5Ac(a2-3)Gal(b1-4)Glc
# Method in brief: as §1
# [34] = biological target: Neu5Ac(a2-3)Gal(b1-4)GlcNAc
# Method in brief: as §1
# [35] = biological target: Neu5Ac(a2-3)Gal(b1-4)GlcNAc(b1-2)Man
# Method in brief: as §1
# [36] = biological target: Neu5Ac(a2-3)Gal(b1-4)GlcNAc(b1-2)Man(a1-3)[GlcNAc(b1-4)][Neu5Ac(a2-3)Gal(b1-4)GlcNAc(b1-2)Man(a1-6)]Man(b1-4)GlcNAc(b1-4)GlcNAc
# Method in brief: as §1
# [37] = biological target: Neu5Ac(a2-3)Gal(b1-4)GlcNAc(b1-2)Man(a1-3)[Neu5Ac(a2-3)Gal(b1-4)GlcNAc(b1-2)Man(a1-6)]Man(b1-4)GlcNAc(b1-4)GlcNAc
# Method in brief: as §1
# [38] = biological target: Neu5Ac(a2-3)Gal(b1-4)GlcNAc(b1-2)Man(a1-3)[Neu5Ac(a2-3)Gal(b1-4)GlcNAc(b1-2)Man(a1-6)]Man(b1-4)GlcNAc(b1-4)[Fuc(a1-6)]GlcNAc
# Method in brief: as §1
# [39] = biological target: Neu5Ac(a2-3)Gal(b1-4)GlcNAc(b1-2)Man(a1-3)[Neu5Ac(a2-6)Gal(b1-4)GlcNAc(b1-2)Man(a1-6)]Man(b1-4)GlcNAc(b1-4)GlcNAc
# Method in brief: as §1
binder,measurement,setting,value
B1,glycan array binding signal (z-score),[1],-0.288
same,glycan array binding signal (z-score),[2],1.31
same,glycan array binding signal (z-score),[3],0.005
same,glycan array binding signal (z-score),[4],-0.192
same,glycan array binding signal (z-score),[5],-0.205
same,glycan array binding signal (z-score),Man(a1-3)[Man(a1-6)]Man,-0.108
same,glycan array binding signal (z-score),[6],0.122
same,glycan array binding signal (z-score),[7],1.26
same,glycan array binding signal (z-score),[8],0.127
same,glycan array binding signal (z-score),[9],-0.093
same,glycan array binding signal (z-score),[10],-0.201
same,glycan array binding signal (z-score),Man(a1-6)Man,0.269
same,glycan array binding signal (z-score),Man(b1-4)GlcNAc,0.643
same,glycan array binding signal (z-score),MurNAc(b1-4)GlcNAc,-0.265
same,glycan array binding signal (z-score),Neu5Ac(a2-3)Gal,-0.227
same,glycan array binding signal (z-score),[11],-0.291
same,glycan array binding signal (z-score),[12],0.002
same,glycan array binding signal (z-score),[13],0.468
same,glycan array binding signal (z-score),[14],-0.28
same,glycan array binding signal (z-score),[15],-0.101
same,glycan array binding signal (z-score),[16],-0.245
same,glycan array binding signal (z-score),[17],-0.135
same,glycan array binding signal (z-score),[18],-0.264
same,glycan array binding signal (z-score),[19],-0.042
same,glycan array binding signal (z-score),[20],2.02
same,glycan array binding signal (z-score),[21],0.574
same,glycan array binding signal (z-score),[22],-0.294
same,glycan array binding signal (z-score),[23],-0.341
same,glycan array binding signal (z-score),[24],-0.225
same,glycan array binding signal (z-score),[25],-0.069
same,glycan array binding signal (z-score),[26],0.017
same,glycan array binding signal (z-score),[27],-0.015
same,glycan array binding signal (z-score),[28],0.058
same,glycan array binding signal (z-score),[29],0.228
same,glycan array binding signal (z-score),[30],-0.336
same,glycan array binding signal (z-score),[31],-0.03
same,glycan array binding signal (z-score),[32],-0.312
same,glycan array binding signal (z-score),[33],-0.206
same,glycan array binding signal (z-score),Neu5Ac(a2-3)Gal(b1-4)Glc,-0.177
same,glycan array binding signal (z-score),[34],-0.2
same,glycan array binding signal (z-score),[35],0.852
same,glycan array binding signal (z-score),[36],-0.271
same,glycan array binding signal (z-score),[37],-0.142
same,glycan array binding signal (z-score),[38],-0.143
same,glycan array binding signal (z-score),[39],0.123
